Measured values from PubChem BioAssay AID463173 (ICCB-Longwood Screening Facility, Harvard Medical School, 2010).
Out of some 52,000 compounds screened, about 4,300 (8.3%) were called active. No stated cut-off is given here; in the data, active means survival mostly below about 52% (no sharp cut-off); inactive means mostly above about 56%. The list shows a part of the results.

These compounds were tested on DeltatarO mutant (assay: growth inhibition of S. aureus wild type versus tarO mutant, primary screen, teichoic acid synthesis inhibitors, RN4220, OD600 (AID 463173)). Details: OD600, 18 h, stronger effect = lower value, screened at 18.75 µg/mL (by protocol).

SMILES | survival
C=CCc1ccccc1OCC(CN1CCCCC1)OC(C)=O (centres undefined) | inactive: 105%
CCOC(=O)C1=C(CS(=O)(=O)c2ccc(C(C)(C)C)cc2)NC(=O)NC1c1cccc(OC)c1 (centres undefined) | inactive: 46%
Cc1cc(C)c(S(=O)(=O)NCCc2cc3cc(C)c(C)cc3[nH]c2=O)c(C)c1 | inactive: 63%
O=S(=O)(NCCc1nnc2ccc(SCc3ccc(C(F)(F)F)cc3)nn12)c1ccccc1 | inactive: 67%
Cc1oc2ccc(O)c(CN3CCN(Cc4ccccc4)CC3)c2c1C(=O)Nc1ccccc1 | inactive: 68%
CN(C)c1ccc(CNC(=O)CN2C(=O)c3cccnc3Oc3ccc(Cl)cc32)cc1 | inactive: 89%
Cc1nn(CC(=O)NCc2cccc(Br)c2)c(=O)c2c1sc1ccccc12 | inactive: 100%
CCOC(=O)c1cccc(NC(=O)Cn2c(CC(=O)N3CCCC3)nc3ccccc32)c1 | inactive: 83%
O=S1(=O)CCC(NC(=S)SCCOc2ccccc2OCCO)C1 (centres undefined) | inactive: 90%
COc1cc(C(CC(=O)Nc2ccc(Br)cn2)N2Cc3ccccc3C2=O)cc(OC)c1OC (centres undefined) | inactive: 78%
C=CCc1c(C)nc(SC)nc1Nc1ccc(C(=O)O)cc1 | inactive: 113%
CCCC1(C(=O)OC)NC(c2cc(OC)c(OC)c(OC)c2)C2C(=O)N(c3ccc(C)cc3)C(=O)C21 (centres undefined) | inactive: 85%
Cc1c(C(=O)Nc2cccc(F)c2)oc2c1-c1nn(Cc3c(F)cccc3Cl)cc1CC2 | inactive: 101%
COc1ccc(NC(=O)CSc2nnc(-c3ccc(OC)cc3)s2)cc1 | inactive: 84%
COc1cccc(C(c2sc3nc(-c4ccco4)nn3c2O)N2CCOCC2)c1 (centres undefined) | inactive: 74%
Cc1ccc(Nc2nc3ccc(C)cc3nc2-n2nc(C)cc2C)c(C)c1 | inactive: 81%
CC(C)C(=O)Nc1nnc(S(=O)(=O)N2CCCCCC2)s1 | inactive: 85%
COc1ccc(N(CC(=O)NCc2ccccc2Cl)S(=O)(=O)c2c(C)[nH]c(=O)[nH]c2=O)cc1 | inactive: 90%
O=C(C1COc2ccccc2O1)N1CCN(c2nc3c(F)cccc3s2)CC1 (centres undefined) | inactive: 77%
COCCNC(=O)C1CCC(CNS(=O)(=O)c2ccc3c(c2)CC(C)N3C(C)=O)CC1 (centres undefined) | inactive: 73%
COc1ccc(N2CC3=C(C2=O)C(c2ccc(O)c(OC)c2)NC(=O)N3C)cc1 (centres undefined) | inactive: 87%
CCOc1ccccc1NC(=O)Cn1cnc2c1c(=O)n(C)c(=O)n2C | inactive: 71%
CCOC(=O)c1ccccc1NC(=O)c1cc2c(s1)-c1c(C)cccc1OC2 | inactive: 137%

SMILES | survival
Cc1c(Cl)cccc1NC(=O)NCc1c(-n2cccc2)sc2c1CCCC2 | inactive: 91%
Cc1ccc(N(Cc2cccs2)C(=O)Nc2cccc(Cl)c2)cc1 | inactive: 80%
Cc1ccc(Cn2c(=O)n(CC3CCC(C(=O)N4CCC(C)CC4)CC3)c(=O)c3sccc32)cc1 (centres undefined) | inactive: 69%
Cc1ccc(CNC(=O)c2c(O)nc3ccccn3c2=O)cc1 | inactive: 89%
Cc1oc2c(c1C(=O)Nc1ccccc1Br)C1=NCCN1C=N2 | inactive: 75%
O=C(NCCc1cccs1)c1ccc(Cn2c(SCc3ccccc3)nc3cccnc32)cc1 | inactive: 99%
COc1cccc(CNC(=O)c2sc3nc4n(c(=O)c3c2C)CCC4)c1 | inactive: 103%
COCCCNC(=O)c1cc(-c2ccc(OC)cc2)nc2n[nH]c(-c3ccc(Cl)cc3)c12 | inactive: 73%
COc1ccc(CCNC(=O)c2cnc3ccc(C)cn3c2=O)cc1OC | inactive: 90%
Cn1ncc2c(NCc3ccc(Cl)cc3)ncnc21 | inactive: 83%
Cc1c(C(=O)Nc2ccc(F)cc2F)oc2ccc3c(c12)C(=O)CC(C)(C)O3 | inactive: 80%
CC(C)OCCCNc1sc(S(=O)(=O)c2ccccc2)nc1S(=O)(=O)c1ccc(Cl)cc1 | inactive: 69%
CCOc1ccccc1NC(=O)CSc1nc2c(oc3ccccc32)c(=O)n1C(C)C | inactive: 91%
Cc1nn(CCC(=O)Nc2cccc(C#N)c2)c(C)c1S(=O)(=O)N1CCC(C)CC1 | inactive: 89%
COC(=O)c1ccccc1NC(=O)Cc1nc(-c2ccc(OC)cc2)no1 | inactive: 102%
COc1ccc(-n2cnc3cc(C(=O)NCCC4=CCCCC4)ccc32)cc1 | inactive: 75%
O=C(Nc1cccc(C(=O)OCc2cc(=O)n3ccsc3n2)c1)c1ccc(F)cc1 | inactive: 119%
COc1ccc(OC)c(NC(=O)CN(c2ccccc2OC)S(=O)(=O)c2ccc(C)cc2)c1 | inactive: 54%
Cc1csc2nc(COC(=O)c3ccc(NC(=O)c4ccccc4Br)cc3)cc(=O)n12 | inactive: 122%
CCOCCCNC(=O)CCC(=O)NNc1nc2ccccc2c2nc(C)nn12 | inactive: 89%
Cc1nc2nc(SCC(=O)NCCc3ccc(Cl)cc3)nn2c(C)c1Cc1c(F)cccc1Cl | active: 0%
CCN(c1ccc(C)cc1C)S(=O)(=O)c1nnc(NC(=O)c2ccc(F)cc2)s1 | active: 14%
COc1ccc(CCN(Cc2cc3cc(C)ccc3n3nnnc23)C(=O)N(C)C)cc1OC | inactive: 86%

SMILES | survival
Cc1ccc2oc(=O)c(-c3nc(-c4cccs4)no3)cc2c1 | inactive: 86%
COc1cccc(-c2cc(C(=O)Nc3ccc(OC)cc3OC)no2)c1 | inactive: 56%
Nc1ncc(S(=O)(=O)N2CCN(c3ccccc3)CC2)cn1 | inactive: 109%
COc1cc(NC(=O)CSc2ccc(-c3sc(C)nc3C)nn2)cc(OC)c1 | active: 6%
Cc1ccc(S(=O)(=O)C(CNC(=O)C(=O)NCCc2ccc(F)cc2)c2cccs2)cc1 (centres undefined) | inactive: 67%
O=C(CSc1nc2c([nH]c3ccccc32)c(=O)n1-c1ccc(F)cc1)Nc1ccc2c(c1)OCO2 | inactive: 58%
COc1ccc(Cl)cc1NC(=O)c1oc2ccc(S(=O)(=O)N3CCCCC3)cc2c1C | inactive: 67%
COc1ccc(N2CCN(C(=O)c3ccc(CS(=O)c4cccc(C)c4)o3)CC2)cc1 (centres undefined) | inactive: 80%
CCCOc1ccc(C(=O)Nc2cccc(NC(=O)c3ccc(Cl)cc3Cl)c2)cc1 | inactive: 84%
Cc1nn(CC(=O)NCc2ccco2)c(=O)c2nn(-c3ccccc3)c(C)c12 | inactive: 92%
CC(=O)N1CCc2cc(CNS(=O)(=O)c3ccccc3C(F)(F)F)ccc21 | inactive: 80%
O=C(CSc1nc2ccccc2n1Cc1cccc(C(F)(F)F)c1)NCc1ccccc1 | inactive: 75%
CC(=O)Nc1ccc(NC(=O)c2c(-c3ccccc3)noc2C)cc1 | inactive: 75%
O=C(O)c1ccc(CSc2nc3cccnc3n2Cc2cccc(F)c2)cc1 | inactive: 93%
Cc1cccc(OCC(=O)Nc2ccc(S(=O)(=O)N(Cc3ccccc3)c3ccccc3)cc2)c1 | inactive: 82%
Cc1cc(-n2c(C)nc3ccccc3c2=O)ccc1NC(=O)c1cccc([N+](=O)[O-])c1C | active: 0%
CCc1nn(CC(=O)NCC(C)c2ccccc2)c(=O)c2cc3c(OC)cccc3n12 (centres undefined) | inactive: 82%
COC(=O)c1ccccc1NC(=O)C1CCCN(C(=O)c2cnn(-c3ccc(F)cc3)c2-n2cccc2)C1 (centres undefined) | inactive: 93%
COCCn1c(=O)[nH]c2cc(C(=O)N3CCN(c4ccc(F)cc4)CC3)ccc2c1=O | inactive: 70%
c1ccc2c(-n3cccn3)cccc2c1 | inactive: 94%
Oc1c(C(c2cccc(Cl)c2)N2CCOCC2)sc2nc(-c3ccco3)nn12 (centres undefined) | inactive: 84%
CCN1c2ccccc2-c2nc(SCC(=O)Nc3cc(C)c(Cl)cc3OC)ncc2S1(=O)=O | inactive: 91%
O=S(=O)(c1ccc(S(=O)(=O)N(Cc2cccs2)C2CCCCC2)cc1)N1CCCC1 | inactive: 91%

SMILES | survival
COc1ccc(CCNC(=O)c2c3c(nc4ccccc24)C(=O)N(C2CCCCC2)C3)cc1OC | inactive: 103%
O=C(COc1ccc(F)cc1)NCc1ccc2c(c1)CCN2C(=O)c1ccc(F)cc1 | inactive: 70%
O=C1CC(=O)N(Cc2cccs2)C(=O)N1 | inactive: 77%
O=C(Nc1ccc(F)c(Cl)c1)C1CCN(c2ncccn2)CC1 | inactive: 63%
O=C(Nc1ccccn1)NC12CC3CC(CC(C3)C1)C2 | inactive: 106%
C1=C(c2cccs2)OC(c2cccs2)=CC1c1cccs1 | inactive: 52%
Cc1ccc(-n2ncc3c(N4CCN(Cc5ccccc5)CC4)ncnc32)cc1C | inactive: 88%
N#C/C(=C\c1ccc(-c2ccc(Br)cc2)o1)C(=O)Nc1ccccc1O | inactive: 70%
Cc1oc(-c2ccccc2F)nc1Cn1c(SCc2cccc(Cl)c2)nc2ccncc21 | inactive: 60%
CCOCCc1nn2c(=O)cc(COC(=O)c3ccccc3Br)nc2s1 | inactive: 87%
CCOC(=O)C1(CCSC)NC(c2cccs2)C2C(=O)N(CC)C(=O)C21 (centres undefined) | inactive: 90%
O=C(NCCc1csc(-c2ccc(C(F)(F)F)cc2)n1)c1ccccc1Cl | inactive: 96%
Cn1c(=O)n(C)c2cc(CNCc3ccc(F)cc3)ccc21 | inactive: 92%
Cc1ccc(C(=O)N2CCc3cc(CNC(=O)c4ccccc4F)ccc32)cc1 | inactive: 77%
Cc1c(NC(=O)Nc2ccccc2C(F)(F)F)c(=O)n(-c2ccccc2)n1C | inactive: 92%
CCOc1ccc(C2=C(C(C)=O)Sc3nnc(C)n3N2C(C)=O)cc1 | inactive: 89%
Cc1cc(C)cc(-n2c(SCC(=O)Nc3ccccc3F)nc3c(oc4ccccc43)c2=O)c1 | inactive: 70%
Cc1ccc(Cn2cnc3nc4c(cc3c2=O)CCCC4)cc1 | inactive: 81%
CCOc1ccc(NC(=O)c2cccc3c(=O)c4c([nH]c23)CCCC4)cc1 | inactive: 68%
O=C(CS(=O)(=O)c1ccc(Cl)cc1)Nc1nc2ccc(Br)cc2s1 | inactive: 54%
